# Measurements taken from PubChem BioAssay AID2101 (National Center for Advancing Translational Sciences (NCATS), 2009).
# Hit rate of the full screen: of about 330,000 compounds, about 300 (0.091%) were called active. This list was built around the results that the source calls inconclusive (neither active nor inactive); the mix of calls is not that of the screen. The call rests on the fitted dose curve; in most records, active means well fitted inhibition curve with a large enough effect; inconclusive means small, poorly fitted or top-dose-only effect, or effect the other way, or another doubt; inactive means no such curve, though single readings can be large or run the other way. Potencies of inconclusive entries are left out as doubtful fits.
# Target: Lysosomal acid glucosylceramidase (Homo sapiens) (UniProt P04062)
# Experiment: qHTS Assay for Inhibitors and Activators of N370S glucocerebrosidase as a Potential Chaperone Treatment of Gaucher Disease;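 on activity change, negative = inhibition: 0% = full enzyme activity and -100% = no enzyme basal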
# Details: N370S GC spleen homogenate, 4MU-glucoside fluorescence; activity change, negative = inhibition: at 59.4 µM (top of the series) unless noted
# Potency means the concentration at half of the fitted maximal effect.
SMILES,"activity change, negative = inhibition",Potency
O=c1[nH]c(=O)n(Cc2ccccc2)c2nc(-c3ccco3)cc(C(F)(F)F)c12,inactive: 11.1% [at 2.35 µM],–
O=C(Nc1ccc(Cl)cc1)c1csc(Cc2ccccc2)n1,–,"inconclusive [activator, partial curve]"
COc1ccc(CNC(=O)CN(C2CCCCC2)S(C)(=O)=O)cc1,–,"inconclusive [inhibitor, single point]"
Cc1c(/C=N/NC(=O)c2ccc(O)cc2)c2ccccn2c1C(=O)c1ccc(F)cc1,–,"inconclusive [inhibitor, single point]"
COC(=O)c1c(NC(=O)CN2CCC3(O)CCCCC3C2c2cc(OC)ccc2OC)sc(C)c1C (stereo not drawn),–,"inconclusive [activator, partial curve]"
CC(=O)C(C)Oc1ccc2c3c(c(=O)oc2c1)CCCCC3 (stereo not drawn),–,"inconclusive [activator, partial curve]"
COc1cc(CNCCc2ccc(F)cc2)ccc1OCc1ccc(Cl)nc1,–,"inconclusive [inhibitor, partial curve]"
O=C(CN1C(=O)CCC1=O)c1ccc(-c2ccccc2)cc1,inactive: 8.09%,–
COc1nc(NC(=O)c2ccc(F)cc2)nc(OC)c1-c1ccccc1,–,"inconclusive [inhibitor, full curve, poor fit]"
NC(=O)c1nsc(C(=O)N(c2ccccc2)C(C(=O)NCc2ccc(F)cc2)c2ccc(O)cc2)c1N (stereo not drawn),–,"inconclusive [activator, single point]"
COC/C=C/C1=CC2=CC(=O)C(C)(OC(=O)c3cnc4ccccc4n3)C(=O)C2=CN1Cc1ccc2c(c1)OCO2 (stereo not drawn),inactive: 5.78% [at 12.8 µM],–
N#CC(C(=O)C1CCCCC1)c1nc2ccccc2[nH]1 (stereo not drawn),–,"inconclusive [activator, partial curve]"
CC(C)(C)C(=O)Nc1ccccc1-c1nc2ccccc2[nH]c1=O,–,"inconclusive [activator, single point]"
CC(C)CCNC(=O)C(c1cccnc1)N(CCc1ccccc1)C(=O)Cn1nnc2ccccc21 (stereo not drawn),inactive: 5.04%,–
CCOC(=O)CC(=O)CSc1nc(CC)c(C)cc1C#N,inactive: 9.75%,–
Cc1nc(-c2ccc(S(=O)(=O)Nc3ccc(Br)cc3Cl)s2)cs1,–,"inconclusive [activator, partial curve]"
COc1cccc(-n2c(CCn3nc(C)c([N+](=O)[O-])c3C)n[nH]c2=S)c1,inactive: -17.8%,–
COc1ccc(/C=N/Nc2nc(N3CCCCC3)nc(N3CCCCC3)n2)cc1[N+](=O)[O-],–,"inconclusive [activator, single point]"
CNc1cc([N+](=O)[O-])ccc1OCc1ccccc1,inactive: 1.31%,–
COc1ccc(-n2c3c(cc(C(=O)NCc4ccco4)c2=O)C(=O)CC(C)(C)C3)cc1,–,"inconclusive [activator, single point]"
NC(=S)N=Nc1ccc(NN=C(N)N)cc1,inactive: -8.55%,–
COc1ccc(-c2oc3cccnc3c2C#CCO)cc1,–,"inconclusive [activator, single point]"
COc1ccc(-c2cc(-c3ccc(Cl)cc3)c(C#N)c(SCC(=O)O)n2)cc1,–,"inconclusive [activator, partial curve]"

SMILES,"activity change, negative = inhibition",Potency
CCN(CC)C(=O)COc1c(-c2ccco2)oc2ccccc2c1=O,–,"inconclusive [activator, single point]"
CN(c1ccc(C(=O)Nc2ccc3c(c2)n(C)c(=O)n3C)cc1)S(C)(=O)=O,–,"inconclusive [inhibitor, full curve, poor fit]"
Cc1ccc2nc(N(CCCN(C)C)C(=O)c3cc(-c4cccs4)nc4ccccc34)sc2c1,–,"inconclusive [inhibitor, single point]"
Oc1ccc(/C=N/N2CCCCC2)c(O)c1,inactive: -18.8%,–
Cc1cc(C(=O)CSc2nnc(-c3ccccc3F)o2)c(C)n1Cc1cccs1,–,"inconclusive [activator, partial curve]"
CC(C)N(CCNC(=O)c1oc(=O)c2ccccc2c1-c1ccccc1)Cc1ccco1,–,"inconclusive [inhibitor, single point]"
CN(CCO)S(=O)(=O)c1ccc2c(c1)C(=NO)c1cc(S(=O)(=O)N(C)CCO)ccc1-2,–,"inconclusive [inhibitor, partial curve]"
N#CCCn1cc(/C=N/O)c(-c2ccccc2)n1,inactive: -0.749%,–
Cc1ccc(NC(=O)COC(=O)C2(c3ccc(Cl)cc3)CCCC2)cc1,–,"inconclusive [activator, partial curve]"
O=C(CN1CCCCCC1)Nc1ccccc1F,inactive: -10.1%,–
CN(c1ccc(OCC(=O)NCCc2ccccc2)cc1)S(=O)(=O)c1ccc(Cl)cc1,–,"inconclusive [inhibitor, single point]"
O=C(CSc1nc2cc(S(=O)(=O)N3CCOCC3)ccc2o1)NC1CCCc2ccccc21 (stereo not drawn),–,"inconclusive [inhibitor, single point]"
CCCCC(CC)CN=C(N)NC(N)=NCCCCCCN=C(N)NC(N)=NCC(CC)CCCC (stereo not drawn),–,"inconclusive [inhibitor, partial curve]"
c1ccc(C2CC(c3cccs3)=NN2c2ccccc2)cc1 (stereo not drawn),–,"inconclusive [activator, partial curve]"
Cc1cc2nnc(SC(C)C#N)n2c2ccccc12 (stereo not drawn),inactive: 0.438%,–
COC(=O)[C@@H](NC(=O)NCc1cccc(OC)c1)C(C)C,–,"inconclusive [activator, partial curve, poor fit]"
Cc1[nH]c2ccccc2c1/C=N/Nc1ccccc1[N+](=O)[O-],inactive: 9.52%,–
COc1ccc(Cl)cc1NC(=O)CC(C)c1ccccc1 (stereo not drawn),inconclusive: 33.6% [activator],–
Cc1cc(-c2csc(N)n2)c(C)n1Cc1ccccc1,–,"inconclusive [inhibitor, full curve, poor fit]"
Nc1nc(NCCOCCO)nc(NC2CCCCC2)c1[N+](=O)[O-],inactive: -15.4%,–
C=C1C(=O)O[C@H]2C1CC[C@@](C)(O)C13C=CC(C)(C21)C1(C3)C(=O)O[C@@H]2C3C(C)=CCC3[C@](C)(O)C[C@H](OC(C)=O)C21 (stereo partly drawn),inactive: -1.19%,–
COc1ccc(OC)c(NC(=O)Cn2c(CCC(=O)O)ccc2-c2ccccc2)c1,inactive: -7.35%,–
CCn1nnnc1-c1ccc(OC)c(S(=O)(=O)NCc2ccccc2)c1,inconclusive: 33.4% [activator],–

SMILES,"activity change, negative = inhibition",Potency
O=C(Nc1ccc(Cl)cc1)c1ccc(OCC2CCCO2)cc1 (stereo not drawn),inactive: 0.218%,–
CCOC(=O)NC1(Nc2ccc(Cl)cn2)Oc2ccccc2O1,inactive: -1.9%,–
N#Cc1c(NC(=O)c2ccc(Cn3cc(Br)cn3)o2)sc2c1CCCCC2,–,"inconclusive [activator, partial curve]"
CC(CC(=O)Nc1cccc(F)c1)S(=O)(=O)c1ccc2c(c1)NC(=O)CO2 (stereo not drawn),–,"inconclusive [inhibitor, single point]"
Cc1ccc(NC(=O)C2CCCN(c3ncnc4c3nc3n4CCCCC3)C2)cc1Cl (stereo not drawn),–,"inconclusive [activator, single point]"
Fc1ccc(CSc2nnc(-c3cc4c(s3)-c3ccccc3CC4)o2)cc1,–,"inconclusive [activator, partial curve]"
O=C(OCC(=O)N1CCC(Cc2ccccc2)CC1)c1ccccc1NCCO,–,"inconclusive [activator, partial curve]"
Nc1c(Cl)cc(C2=NCCn3c2c2ccccc2[n+]3[O-])cc1Cl,–,"inconclusive [inhibitor, full curve]"
CCN1CCCC1CNC(=O)c1ccc2c(c1)NC(=O)/C(=C\c1ccc(OC)c(OC)c1)S2 (stereo not drawn),–,"inconclusive [inhibitor, single point]"
c1ccc(N2CCCCC2)c(Nc2nc3ccccc3n3cnnc23)c1,–,"inconclusive [activator, full curve, poor fit]"
COc1ccccc1CNC(=O)COC(=O)c1nccnc1N,–,"inconclusive [activator, single point]"
COc1ccc(Nc2ccc(S(=O)(=O)N3CCCCC3)cc2[N+](=O)[O-])cc1OC,–,"inconclusive [activator, partial curve]"
CCOC(=O)C1=C(C)Nc2sc(C(=O)c3ccc(C)cc3)c(N)c2C1c1ccc(C(=O)OC)cc1 (stereo not drawn),inactive: -3.01%,–
CCOc1ccc(C(C(=O)NCC2CCCO2)N(C(=O)c2snc(C(N)=O)c2N)c2cccc(F)c2)cc1 (stereo not drawn),–,"inconclusive [activator, partial curve]"
O=S(=O)(c1ccc(N2CCOCC2)cc1)N1CCOCC1,inactive: -3.75%,–
COC(=O)c1cc(NC(=O)c2cccc(C(F)(F)F)c2)c(=O)oc1C/C=N/OCc1cccc(Cl)c1Cl,inactive: -0.539%,–
Cc1cc2nc(-c3ccc(SCC(=O)Nc4ccc(S(=O)(=O)NC5CC5)cc4)nc3)[nH]c2cc1C,inactive: -0.935%,–
CCN(CC)c1c([N+](=O)[O-])c(=O)n(C)c2ccccc12,inactive: 18.9%,–
CN(CCOC(=O)/C=C/c1ccco1)Cc1ccccc1,inactive: -3.43%,–
CCOC(=O)C1(CCOc2ccccc2)CCN(Cc2ccc(O)cc2)CC1,–,"inconclusive [inhibitor, partial curve, poor fit]"
CC(CCc1ccco1)N(C)S(=O)(=O)c1csc(C(N)=O)c1 (stereo not drawn),–,"inconclusive [activator, single point]"
COCCn1c(N)c(C(=O)NCc2cccs2)c2nc3ccccc3nc21,–,"inconclusive [activator, partial curve]"
